Assay results as given in PubChem BioAssay AID1745853 (National Center for Advancing Translational Sciences (NCATS), 2022).
Values joined by “and” are separate entries in the source; they are usually repeats but may differ in a detail not shown here. Equal values may be shown once. The list shows a part of the results. The main result of the screen is listed elsewhere. These columns were measured beside it and carry no call.

Experiments:
Test in all cases: Primary Screen for Target Class Profiling of Small Molecule Inhibitors of Methyltransferases
[1] = target: Glycine N-methyltransferase (Homo sapiens) (UniProt Q14749); settings: purified enzyme, MTase-Glo SAH luminescence; measured here: GNMT inhibition; at 40 µM; stronger effect = lower value
Procedure, shortened: (§1)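 Each enzyme was assayed with SAM and its substrate. SAH formation detected by MTase-Glo luminescence; single-point 40 uM screen[…].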

[2] = target: Guanidinoacetate N-methyltransferase (Homo sapiens) (UniProt Q14353); settings: purified enzyme, MTase-Glo SAH luminescence; measured here: GAMT inhibition; at 40 µM; stronger effect = lower value
Procedure, shortened: as §1

[3] = target: Histamine N-methyltransferase (Homo sapiens) (UniProt P50135); settings: purified enzyme, MTase-Glo SAH luminescence; measured here: HNMT inhibition; at 40 µM; stronger effect = lower value
Procedure, shortened: as §1

[4] = target: Nicotinamide N-methyltransferase (Homo sapiens) (UniProt P40261); settings: purified enzyme, MTase-Glo SAH luminescence; measured here: NNMT inhibition; at 40 µM; stronger effect = lower value
Procedure, shortened: as §1

[5] = target: Phenylethanolamine N-methyltransferase (Homo sapiens) (UniProt P11086); settings: purified enzyme, MTase-Glo SAH luminescence; measured here: PNMT inhibition; at 40 µM; stronger effect = lower value
Procedure, shortened: as §1
On the % scale 0 is the no-effect control and ±100 the full control effect.

Structure (SMILES) | activity change, negative = inhibition [1] [%] | activity change, negative = inhibition [2] | activity change, negative = inhibition [3] [%] | activity change, negative = inhibition [4] | activity change, negative = inhibition [5]
CC(C)Oc1ccc(CNC(=O)c2cc3n(n2)CC(C)(C(=O)NCc2ccccc2)N(C)C3=O)cc1 (stereo not drawn) | -3.32 | 1.68% | -3.08 | -1.16% | -1.06%
CC1c2cccn2CCN1C(=O)Nc1ccccc1 (stereo not drawn) | -2.75 | 0% | 4.57 | -5.41% | 0.861%
COc1ccc([C@H]2OC[C@H]3O[C@@H](O[C@H]4[C@@H]2NC[C@@H]4O)[C@H](O)[C@H]3O)cc1 | 2.99 | -0.955% | 6.09 | -8.07% | 0.945%
COc1ccccc1CN1C(=O)c2cc3sccc3n2CC1(C)C(=O)NC1CCC(C)CC1 (stereo not drawn) | -1.6 | 2.02% | -0.4 | -3.63% | -1.66%
CCCN1C(=O)c2c(C(=O)NCc3cc(OC)ccc3OC)ncn2CC1(C)C(=O)NCc1ccc(F)cc1 (stereo not drawn) | 1.35 | 0.628% | 8.54 | 9.3% | 8.56%
CCC(C)C(=O)O[C@H]1CCC=C2C=C[C@H](C)[C@H](CC[C@@H](O)C[C@@H](O)CC(=O)O)[C@H]21 (stereo partly drawn) | -0.028 | 3.03% | 10.1 | -12% | -5.2%
O=C(C1CCCC1)N1Cc2ccccc2CC2(CCCN(Cc3ccccc3)C2)C1 (stereo not drawn) | -6.17 | -7.56% | -7.93 | -15.3% | -6.75%
CN1CCN(Cc2ccc(CC3CCN(S(=O)(=O)c4cccc(F)c4)CC3)cc2)CC1 | -3.45 | 0% | -0.477 | 0.691% | -0.591%
O=C(CCCN1CCN(c2ccc(F)cc2)CC1)NC1c2ccccc2CSc2ccccc21 (stereo not drawn) | 0.654 | 5.68% | 2.98 | -14.9% | -5.39%
CC(C)CNC(=O)c1ccc2c(=O)n(C(C)C)c3nn(Cc4cccc(Cl)c4)c(=O)n3c2c1 | -3.58 | 4.34% | -0.794 | -2.69% | 0.714%
CCOCCCNC(=O)CCc1nnc2n(CCC(C)C)c(=O)c3ccccc3n12 | -4.07 | 1.34% | -3.18 | -1.89% | -6.78%
CC(C)CNC(=O)c1ccc2c(=O)n(C(C)C)c3n[nH]c(=O)n3c2c1 | -2.45 | 0% | -1.48 | 0.832% | -8.06%
CC(=O)Nc1c2n(c3ccc(F)cc13)CC(C)(C(=O)NC1CCCCC1)N(Cc1cccnc1)C2=O (stereo not drawn) | 0.889 | -4.23% | 7.74 | -2.94% | -1.89%
C/C(=C\CO)CC/C=C(\C)C(=O)O[C@H]1[C@H](OC2OC=C(C(=O)O)C3CCC(C)(O)C23)O[C@H](CO)[C@@H](O)[C@@H]1O (stereo partly drawn) | 5.43 | 5.43% | 14.8 | -5.92% | 7.55%
COc1ccc(C2(C(=O)N3C[C@@H](Oc4cccnc4)C[C@H]3C(=O)NC3CC3)CC2)cc1 | 0.164 | -0.359% | -0.26 | -0.998% | -11.5%
CCOC(=O)c1cc2n(n1)CC(C)(C(=O)NCc1ccc(C)cc1)N(c1ccc(C)cc1C)C2=O (stereo not drawn) | 1.71 | 2.72% | -3.14 | 0.475% | 2.09%
CCOC(=O)c1cc2n(n1)CC(C)(C(=O)NC1CCCCCC1)N(Cc1cccc(OC)c1)C2=O (stereo not drawn) | -0.502 | 2.96% | -2.03 | -10% | -0.548%
CCN1CCC2(CCC1=O)CN(Cc1ccc(C)c3ccccc13)CCN2C (stereo not drawn) | -3.81 | -1.09% | -4.81 | -9.77% | -2.79%
CC(C)n1c(=O)c2ccc(C(=O)NC3CCCC3)cc2n2c(=O)n(Cc3ccccc3Cl)nc12 | 0.45 | 3.55% | 5.65 | 2.43% | 1.4%
CC(C)c1ccc(-c2nnc3n(Cc4ccccc4)c(=O)c4ccccc4n23)cc1 | -8.17 | 0.969% | 1.35 | -8.21% | -3.95%
CC1(C(=O)NC2CCCC2)Cn2c(ccc2-c2ccccc2)C(=O)N1CCc1ccc(Cl)cc1 (stereo not drawn) | 1.25 | 0% | 3.17 | -5.89% | 1.28%
O=C(CCc1ccc2c(c1)CN(C(=O)C1CC1)CCO2)NC1CCS(=O)(=O)C1 (stereo not drawn) | 0.852 | 3.32% | -0.803 | -1.89% | 13.4%
COC(=O)C1=COC(O[C@@H]2O[C@H](CO)[C@@H](O)[C@H](O)[C@H]2O)[C@@H]2[C@@](C)(O)[C@@H](OC(=O)/C=C/c3ccccc3)C[C@]12O (stereo partly drawn) | 4.99 | 6.77% | 12.1 | -6.85% | 7.1%
CNC(=O)c1ccccc1Nc1nc(Nc2ccc3c(c2OC)CCC[C@H](N2CCN(CCO)CC2)C3)ncc1Cl |  | 12.2% and 7.9% |  | -20.7% and -28.7% | -7.7% and -15.1%
COCCC1(C(=O)O)CCCN(Cc2cn[nH]c2C2CCCCC2)C1 (stereo not drawn) | -1.34 | -4% | -0.509 | -4.02% | -2.03%
CCOc1ccccc1CN1C(=O)c2cc3oc(C)cc3n2CC1(C)C(=O)NC1CCCCCCC1 (stereo not drawn) | -1.22 | 3.47% | 7.63 | -1.93% | 1.93%
CC1(C(=O)NC2CCCCCCC2)Cn2c(cc3occc32)C(=O)N1CCc1ccccc1 (stereo not drawn) | -7.84 | 7.71% | -4.71 | -7.71% | -4.2%
Cc1nc([C@@H]2CN(C(=O)CCc3c(C)noc3C)C[C@H]2C(N)=O)n[nH]1 | -3.74 | -6.48% | -2.35 | -16% | -3.12%
Cc1ccc(N2C(=O)c3ccc(-c4ccco4)n3CC2(C)C(=O)NCc2ccc(Cl)cc2)cc1 (stereo not drawn) | -19.5 | 0.769% | -6.94 | -10.8% | -4.5%
